Source: the supplement of paper PMC4967469
A lower IC50 marks a more sensitive line; fits outside the tested doses are given as limits. The AUC spans the tested range (256-fold, ending at the top dose) of the same fit; the more sensitive the line, the further below 1. For some assays here: Any top dose called inferred was derived from the fitted curves, not read from the paper. For some assays here: Where an entry number is given, a second screen of the drug exists; the two often differ.

What was measured:
Experiment in all cases: Viability of human cancer cell lines after 72 h of drug (GDSC screen)
AMG-706 = compound: CC1(C)CNc2cc(NC(=O)c3cccnc3NCc3ccncc3)ccc21 [AMG-706]; settings: top dose 2 µM; top dose inferred
Procedure: (§1)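 Human cancer cell lines in 384-well plates, medium with 10% serum, drug for 72 h over a 256-fold dose range (nine 2-fold or five 4-fold steps up to the top dose). Adherent lines were fixed and stained with the nucleic acid dye Syto60, suspension lines read with resazurin; signal relative to control wells, capped at 0 and 100%. One two-parameter sigmoid per drug and line, fitted in a mixed model over all curves with the slope shared within a line.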

JQ1 = compound: Cc1sc2c(c1C)C(c1ccc(Cl)cc1)=N[C@@H](CC(=O)OC(C)(C)C)c1nnc(C)n1-2 [JQ1]
Procedure: as §1

CGP-60474 = compound: OCCCNc1cc(-c2ccnc(Nc3cccc(Cl)c3)n2)ccn1 [CGP-60474]; settings: top dose 0.256 µM; top dose inferred
Procedure: as §1

JNK Inhibitor VIII = compound: CCOc1nc(NC(=O)Cc2cc(OC)ccc2OC)cc(N)c1C#N [JNK Inhibitor VIII]; settings: top dose 10 µM; top dose inferred
Procedure: as §1

NVP-TAE684 = compound: COc1cc(N2CCC(N3CCN(C)CC3)CC2)ccc1Nc1ncc(Cl)c(Nc2ccccc2S(=O)(=O)C(C)C)n1 [NVP-TAE684]; settings: top dose 2 µM
Procedure: as §1

Belinostat = compound: O=C(/C=C/c1cccc(S(=O)(=O)Nc2ccccc2)c1)NO [Belinostat]; settings: top dose 20 µM; top dose inferred
Procedure: as §1

SB-715992 = compound: Cc1ccc(C(=O)N(CCCN)[C@@H](c2nc3cc(Cl)ccc3c(=O)n2Cc2ccccc2)C(C)C)cc1 [SB-715992]; settings: top dose 0.128 µM; top dose inferred
Procedure: as §1

JNJ-26854165 = compound: c1ccc2c(CCNc3ccc(Nc4ccncc4)cc3)c[nH]c2c1 [JNJ-26854165]; settings: top dose 10 µM
Procedure: as §1

Docetaxel = compound: CC(=O)O[C@@]12CO[C@@H]1C[C@H](O)[C@@]1(C)C(=O)[C@H](O)C3=C(C)[C@@H](OC(=O)[C@H](O)[C@@H](NC(=O)OC(C)(C)C)c4ccccc4)C[C@@](O)([C@@H](OC(=O)c4ccccc4)[C@H]21)C3(C)C [Docetaxel]; settings: top dose 0.0125 µM
Procedure: as §1

YM155 = compound: COCC[n+]1c2c(n(Cc3cnccn3)c1C)C(=O)c1ccccc1C2=O [YM155]; settings: top dose 5.12 µM
Procedure: as §1

Cyclopamine = compound: CC1=C2C[C@H]3[C@@H](CC=C4C[C@@H](O)CC[C@@]43C)[C@@H]2CC[C@]12O[C@@H]1C[C@H](C)CN[C@H]1[C@H]2C [Cyclopamine]; settings: top dose 16 µM; top dose inferred
Procedure: as §1

OSI-906 = compound: C[C@]1(O)C[C@@H](c2nc(-c3ccc4ccc(-c5ccccc5)nc4c3)c3c(N)nccn32)C1 [OSI-906]; settings: top dose 2.56 µM; top dose inferred
Procedure: as §1

FTI-277 = compound: COC(=O)[C@H](CCSC)NC(=O)c1ccc(NC[C@@H](N)CS)cc1-c1ccccc1 [FTI-277]; settings: top dose 1.024 µM; top dose inferred
Procedure: as §1

NSC-207895 = compound: CN1CCN(c2ccc([N+](=O)[O-])c3no[n+]([O-])c23)CC1 [NSC-207895]; settings: top dose 20 µM; top dose inferred
Procedure: as §1

PHA-665752 = compound: Cc1[nH]c(/C=C2\C(=O)Nc3ccc(S(=O)(=O)Cc4c(Cl)cccc4Cl)cc32)c(C)c1C(=O)N1CCC[C@@H]1CN1CCCC1 [PHA-665752]; settings: top dose 2 µM
Procedure: as §1

[1] = top dose 1 µM, screen: GDSC drug entry 1218, top dose inferred
[2] = top dose 2.56 µM, screen: GDSC drug entry 163

Row | Cell Line | AUC (AMG-706) | IC50 (AMG-706) [nM] | AUC (JQ1; [1]) | IC50 (JQ1; [1]) [nM] | AUC (JQ1; [2]) | IC50 (JQ1; [2]) [nM] | AUC (CGP-60474) | IC50 (CGP-60474) [nM] | AUC (JNK Inhibitor VIII) | IC50 (JNK Inhibitor VIII) [nM] | AUC (NVP-TAE684) | IC50 (NVP-TAE684) [nM] | AUC (Belinostat) | IC50 (Belinostat) [nM] | AUC (SB-715992) | IC50 (SB-715992) [nM] | AUC (JNJ-26854165) | IC50 (JNJ-26854165) [nM] | AUC (Docetaxel) | IC50 (Docetaxel) [nM] | AUC (YM155) | IC50 (YM155) [nM] | AUC (Cyclopamine) | IC50 (Cyclopamine) [nM] | AUC (OSI-906) | IC50 (OSI-906) [nM] | AUC (FTI-277) | IC50 (FTI-277) [nM] | AUC (NSC-207895) | IC50 (NSC-207895) [nM] | AUC (PHA-665752) | IC50 (PHA-665752) [nM]
1 | SUP-M2 (anaplastic large cell lymphoma, suspension) | 0.994 | > 2000 | 0.992 | > 1000 | 0.916 | 2200 | 0.479 | 14.2 | 0.989 | > 10000 | 0.144 | 14.9 | 0.162 | 170 | 0.567 | 11.6 | 0.9 | 7420 | 0.753 | 3.33 | 0.012 | < 20 | 0.993 | > 16000 | 0.994 | > 2560 | 0.994 | > 1020 | 0.841 | 9390 |  | 
2 | SW962 (urogenital system, adherent) | 0.922 | > 2000 | 0.926 | > 1000 | 0.839 | 2410 | 0.627 | 39 | 0.975 | > 10000 | 0.8 | 1250 | 0.468 | 1000 | 0.946 | > 128 | 0.918 | > 10000 | 0.724 | 3.99 | 0.038 | < 20 | 0.972 | > 16000 | 0.868 | > 2560 | 0.936 | > 1020 | 0.872 | > 20000 |  | 
3 | TE-1 (oesophagus, adherent) | 0.982 | > 2000 | 0.959 | > 1000 | 0.85 | > 2560 | 0.83 | 223 | 0.938 | > 10000 | 0.732 | 697 | 0.939 | > 20000 | 0.935 | > 128 | 0.942 | > 10000 | 0.675 | 2.76 | 0.514 | 353 | 0.966 | > 16000 | 0.754 | 1080 | 0.954 | > 1020 | 0.981 | > 20000 |  | 
4 | TE-8 (oesophagus, adherent) | 0.984 | > 2000 | 0.97 | > 1000 | 0.967 | > 2560 | 0.586 | 27.9 | 0.985 | > 10000 | 0.702 | 483 | 0.985 | > 20000 | 0.969 | > 128 | 0.84 | 7590 | 0.446 | 0.549 | 0.881 | > 5120 | 0.985 | > 16000 | 0.808 | 1440 | 0.975 | > 1020 | 0.98 | > 20000 |  | 
5 | TE-12 (oesophagus, suspension) | 0.975 | > 2000 | 0.98 | > 1000 | 0.857 | > 2560 | 0.668 | 52.2 | 0.97 | > 10000 | 0.7 | 522 | 0.979 | > 20000 | 0.945 | > 128 | 0.906 | > 10000 | 0.916 | > 12.5 | 0.429 | 196 | 0.963 | > 16000 | 0.684 | 590 | 0.972 | > 1020 | 0.957 | > 20000 |  | 
6 | TE-15 (oesophagus, suspension) | 0.982 | > 2000 | 0.972 | > 1000 | 0.617 | 351 | 0.604 | 32.1 | 0.979 | > 10000 | 0.742 | 684 | 0.362 | 491 | 0.984 | > 128 | 0.927 | > 10000 | 0.881 | > 12.5 | 0.118 | < 20 | 0.985 | > 16000 | 0.892 | > 2560 | 0.961 | > 1020 | 0.926 | > 20000 |  | 
7 | TE-441-T (rhabdomyosarcoma, adherent) |  |  |  |  | 0.914 | > 2560 | 0.652 | 41.4 |  |  |  |  |  |  | 0.856 | 96.7 |  |  |  |  |  |  | 0.982 | > 16000 | 0.861 | 2040 | 0.989 | > 1020 |  |  | 0.878 | 1890
8 | TK10 (kidney, adherent) | 0.98 | > 2000 | 0.98 | > 1000 | 0.729 | 836 | 0.685 | 59.1 | 0.973 | > 10000 | 0.8 | 1210 | 0.958 | > 20000 | 0.965 | > 128 | 0.816 | 7070 | 0.799 | 7.48 | 0.945 | > 5120 | 0.979 | > 16000 | 0.925 | > 2560 | 0.965 | > 1020 | 0.974 | > 20000 |  | 
